PubChem BioAssay AID652104 (National Center for Advancing Translational Sciences (NCATS), 2013)
About 7,200 (1.8%) of roughly 410,000 compounds were called active. This list was built around the results that the source calls inconclusive (neither active nor inactive); the mix of calls is not that of the screen. The call rests on the fitted dose curve; in most records, active means well fitted activation curve with a large enough effect; inconclusive means small, poorly fitted or top-dose-only effect, or another doubt; inactive means no such curve, though single readings can be large or run the other way. No potency is given beside an inconclusive call; the fits are too rough. The source holds several records for some structures; these can differ, active in one and inactive in another.

Assay: qHTS of TDP-43 Inhibitors; further: nearly all actives have a fitted effect of over 50% in size; on growth rescue (activation): % of control where 0% means no effect
Settings: TDP-43 expressing yeast growth rescue, BacTiter-Glo, 24 h; growth rescue (activation): at 46.1 µM (top of the series) unless noted
How it was run: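 In this qHTS, compounds that restore growth of yeast expressing TDP-43 appear as activators. Cells (OD600=0.02, galactose medium, raffinose-pregrown) are incubated with compound 24 hr at 30 deg C and growth is quantified by BacTiter-Glo.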
Potency means the concentration at half of the fitted maximal effect; tags describe the fitted curve by direction and shape.

| Compound | Potency | growth rescue (activation) |
| --- | --- | --- |
| O=C(c1cc2c(s1)-c1ccccc1S(=O)(=O)C2)N1CCN(Cc2ccccc2)CC1 | inconclusive [activator, full curve, poor fit] |  |
| O=C1Nc2ccccc2/C1=N\c1sc2c(c1C(=O)Nc1ccccc1)CCCC2 | inconclusive [activator, partial curve] |  |
| O=C(Nc1ccc(C(F)(F)F)cc1)C1CCCCN1S(=O)(=O)c1ccccc1 (centres undefined) | inconclusive [activator, single point] |  |
| Oc1c(C(c2cccs2)N2CCN(c3ccc(F)cc3)CC2)sc2ncnn12 (centres undefined) | inconclusive [activator, partial curve] |  |
| CCN(CC)C(=O)COc1ccc(-c2ccccc2)cc1 | inconclusive [activator, partial curve] |  |
| CC1CC(C)CN(C(=S)SCc2nc(N)nc(Nc3ccccc3)n2)C1 (centres undefined) | inconclusive [activator, single point] |  |
| CCc1ccc(NS(=O)(=O)c2c(-c3ccccc3)csc2C(=O)OC)cc1 | inactive |  |
| Cc1cc(NCc2ccc(Cl)cc2)n2cnnc2n1 | inactive |  |
| CCOC(=O)c1cccc(C2=CC(=O)C[C@H](c3ccc(OC)cc3)C2)c1 | inconclusive [activator, partial curve] |  |
| Cc1ccc(Cc2c(-c3ccc(Cl)cc3)nc3ccc(Br)cn23)cc1 | inconclusive [activator, partial curve, poor fit] |  |
| Cc1cccc(NS(=O)(=O)Cc2ccccc2)c1C | inconclusive [activator, single point] |  |
| CCOC(=O)c1ccc(NC(=O)CCC(=O)N2CCSc3ccccc32)cc1 | inactive |  |
| Cc1ccc(S(=O)(=O)n2nc(-c3ccco3)nc2NCc2ccc(N(C)C)cc2)cc1 | inactive |  |
| O=C1NN(c2ccccc2)C(=O)/C1=C/c1coc2ccccc2c1=O | inconclusive [activator, single point] |  |
| COc1ccccc1CCC(=O)N1CCN(S(=O)(=O)c2cc(C(F)(F)F)ccc2Cl)CC1 | inconclusive [activator, single point] |  |
| CC(=O)c1cccc(NC(=O)c2c(C)nn(-c3ccccc3)c2Cl)c1 | inactive |  |
| Cc1ccc(S(=O)(=O)C(CNC(=O)c2ccc(C(F)(F)F)cc2)c2ccco2)cc1 (centres undefined) | inactive |  |
| CCOc1cc(/C=C2\C(=O)ON=C2C)ccc1OCc1ccccc1 | inconclusive [activator, partial curve] |  |
| Cc1nc2nc(SCC(=O)NC3CCC(C)CC3)nn2c(C)c1Cc1ccccc1Cl (centres undefined) | inconclusive [activator, single point] |  |
| COc1ccc(NC(=O)COC(=O)c2ccc3c(c2)OCCO3)cc1OC | inconclusive [activator, partial curve] |  |
| O=C(CSc1nc2ccccc2o1)Nc1ccc(Cl)cc1 | inconclusive [activator, partial curve] |  |
| O=c1cc(CSc2ccc(S(=O)(=O)N3CCCCC3)cn2)nc2sccn12 | inconclusive [activator, partial curve] |  |
| Cc1ccc2c(c1)C1(OCCCO1)C(=O)N2 | inconclusive [activator, partial curve] |  |

| Compound | Potency | growth rescue (activation) |
| --- | --- | --- |
| O=C(CSc1ncnc2c1oc1ccccc12)NCc1ccc(F)cc1 | inconclusive [activator, partial curve] |  |
| CC1CCN(S(=O)(=O)c2ccc3c(c2)c(=O)c(C(=O)NCc2ccc(Cl)cc2)cn3C)CC1 | inactive |  |
| COc1ccc(-c2cc(-c3ccccc3)c(C#N)c(=S)[nH]2)cc1 | inconclusive [activator, partial curve] |  |
| O=C(CSc1cccc(C(F)(F)F)c1)NCc1ccccc1 | active: 11.2 µM |  |
| CCCCOc1ccc(C(=O)Oc2ccc(C)nc2)cc1 | inactive |  |
| CCOC(=O)Cc1csc(NC(=O)c2ccc(Br)cc2)n1 | active: 12.6 µM |  |
| O=C(N/N=C/c1ccc(O)c(O)c1)c1ccc(CSc2cccc3cccnc23)cc1 | inconclusive [activator, full curve, poor fit] |  |
| O=C(Nc1ccc(Cl)cc1)OCc1cncs1 | inconclusive [activator, single point] |  |
| c1ccc2sc(NN=C3CCCC3)nc2c1 | inconclusive [activator, partial curve] |  |
| C/C(=N\Nc1ncnc2sc(C)c(C)c12)c1ccccn1 |  | inconclusive: -91.8% [activator] |
| FC(F)(F)c1cccc(-n2cc(-c3ccccc3)[nH]c2=S)c1 | inconclusive [activator, full curve] |  |
| CCSc1nnc(-c2ccc(OC)cc2)o1 | inconclusive [activator, partial curve] |  |
| CC(C)CCN(C(=O)c1ccncc1)c1c(N)n(Cc2ccccc2)c(=O)[nH]c1=O | inconclusive [activator, single point] |  |
| COc1ccc(-c2c3c(=O)n(C)c(=O)n(C)c3cn2-c2cccc(N)c2)cc1 |  | inactive: 0% [at 9.22 µM] |
| CCOC(=O)CC(NC(=O)CCc1c(C)nc2c(-c3ccccc3)c(C)nn2c1C)c1ccc(C)cc1 (centres undefined) | inactive |  |
| CCOC(=O)c1ccc(-c2ccc(N3C(c4ccsc4)=Cc4ccc(F)cc4C3c3c[nH]c4ccc(C#N)cc34)cc2)cc1F (centres undefined) | inconclusive [activator, full curve] |  |
| C[C@H]1CN(Cc2ccccc2)C(=O)[C@@H]1CC(=O)NCc1ccccc1 | inconclusive [activator, partial curve] |  |
| OC1CCC(Nc2ccn3nc(-c4cccc(Cl)c4)cc3n2)CC1 (centres undefined) | inconclusive [activator, partial curve, poor fit] |  |
| CC(C)c1ccc2nc(NC(=O)C3CC3)sc2c1 | active: 22.4 µM |  |
| CCn1cc(C(=O)Nc2sc(C)c(C)c2C(=O)OC)cn1 | inconclusive [activator, single point] |  |
| CC(=O)N(OCc1ccc(OC(C)C)c(Cl)c1)C(C)=O | inconclusive [activator, single point] |  |
| O=C(NNc1nc2cc3c(cc2s1)OCO3)c1cccc(F)c1 | active: 5.62 µM |  |
| Cc1ccc(N(Cc2cccs2)C(=O)c2ccccc2)cc1 | inconclusive [activator, full curve] |  |

| Compound | Potency | growth rescue (activation) |
| --- | --- | --- |
| CCN(C(=O)CSc1nnc(-c2ccco2)n1C)c1c(N)n(Cc2ccccc2)c(=O)[nH]c1=O | inconclusive [activator, partial curve, poor fit] |  |
| O=C(O/N=C(/c1ccccc1)c1ccncc1)c1cccc(F)c1 | active: 14.1 µM |  |
| Cc1ccc(N(CC(=O)NCc2ccc3c(c2)OCO3)S(=O)(=O)c2c(C)noc2C)cc1 | inconclusive [activator, partial curve, poor fit] |  |
| Cc1cc(C)c(-c2csc(NC(=O)C3=COCCO3)n2)c(C)c1 | inconclusive [activator, single point] |  |
| CCN(CC)C(=O)[C@H]1C[C@H](CC(=O)NCCCN(C)C)C(=O)N2CCc3c([nH]c4cc(CCC(=O)N(C)C)ccc34)[C@]12C | inconclusive [activator, partial curve] |  |
| CC(C)c1onc(C(=O)N2CCCCC2)c1[N+](=O)[O-] | inconclusive [activator, partial curve] |  |
| Clc1ccc(-n2ncc3c(NCc4ccccn4)ncnc32)cc1 | inconclusive [activator, single point] |  |
| C=CCOc1ccc(/C=C2/C(=O)ON=C2C)cc1OCC | active: 12.6 µM |  |
| Cc1cc(C)cc(Nc2ccc(C(=O)O)cc2N)c1 | inconclusive [activator, single point] |  |
| CCN(C(=O)c1cnc(N2CCN(c3ncccn3)CC2)c2ccccc12)c1cccc(Cl)c1 | inconclusive [activator, single point] |  |
| CCc1ccc(CN(C)C(=O)c2cc(COc3cc(C)c(Cl)c(C)c3)on2)nc1 | active: 20 µM |  |
| CCCCN1C(=O)C2ON(c3ccccc3C)C(c3ccco3)C2C1=O (centres undefined) | inconclusive [activator, single point] |  |
| Clc1ccccc1Cn1cccc1C1=NC(Cc2ccccc2)CO1 (centres undefined) | inactive |  |
| O=C(NCCc1csc(-c2ccc(Cl)cc2)n1)c1ccco1 | active: 15.8 µM |  |
| CCCN(C(=O)C(=O)Nc1ccc2nc3n(c(=O)c2c1)CCCCC3)c1ccc(OCC)cc1 | inconclusive [activator, partial curve, poor fit] |  |
| COc1cccc(CNC(=O)CSc2nc(=O)[nH]c3c2CCC3)c1 | inactive |  |
| CCOc1ccccc1C(=O)Nc1cccc2ccc(C)nc12 | active: 20 µM |  |
| O=C(Oc1cc(Cl)ccc1Cl)c1ccc(N2CCOCC2)c([N+](=O)[O-])c1 | inconclusive [activator, partial curve, poor fit] |  |
| CCCCN1C=C(C(=O)OCC)C(=O)CC1 | inconclusive [activator, full curve, poor fit] |  |
| Cc1ccc(C(=O)Nc2nc3nc(C)cc(=O)n3[nH]2)cc1 | inactive |  |
| O=C(Cc1cccs1)Nc1nc(-c2ccc(F)cc2F)cs1 | inconclusive [activator, single point] |  |
| CCOc1ccc(N/C=C/C(=O)c2ccc(OC)c(OC)c2)cc1 | active: 15.8 µM |  |
| C=CCNC(=S)N/N=C/c1ccc(C)s1 | inconclusive [activator, partial curve] |  |
